{
  "source": "patent US8492589B2",
  "about": "“Alkynyl phenyl derivative compounds for treating ophthalmic diseases and disorders” (Acucela Inc., priority 2007, dated 2013)",
  "note": "Some of these results come from one statement about several compounds together.",
  "data": [
    {"target": "T1, recombinant human RPE65 and LRAT (Homo sapiens, UniProt Q16518)", "T1 construct": "expressed in transfected cells; host or cells: HEK293 cell clone (homogenate); CRALBP was made in E. coli TOP10", "T1 sequence (Q16518 2-533 limits assumed)": "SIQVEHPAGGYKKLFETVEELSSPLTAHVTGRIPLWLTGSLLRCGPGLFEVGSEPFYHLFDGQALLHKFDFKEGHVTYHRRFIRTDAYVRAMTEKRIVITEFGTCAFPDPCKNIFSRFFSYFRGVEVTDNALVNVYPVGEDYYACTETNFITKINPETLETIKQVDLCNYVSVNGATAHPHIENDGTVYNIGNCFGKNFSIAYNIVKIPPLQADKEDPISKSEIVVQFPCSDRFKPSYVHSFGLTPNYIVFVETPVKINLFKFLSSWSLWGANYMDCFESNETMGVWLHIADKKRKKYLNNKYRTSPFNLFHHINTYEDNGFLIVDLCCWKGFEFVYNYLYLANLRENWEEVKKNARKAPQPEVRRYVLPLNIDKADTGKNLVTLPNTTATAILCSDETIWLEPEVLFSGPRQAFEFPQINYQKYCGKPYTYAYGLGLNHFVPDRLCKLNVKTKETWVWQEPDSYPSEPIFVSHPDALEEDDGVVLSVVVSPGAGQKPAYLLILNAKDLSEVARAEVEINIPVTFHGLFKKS", "experiment": "In vitro isomerase inhibition assay, recombinant human enzyme system (HEK293 homogenate)", "format": "biochemical", "conditions": "homogenate of HEK293 cells expressing recombinant human RPE65 and LRAT; 11-cis-retinol formation", "experimental": "The concentration dependent effect of the compounds disclosed herein on the retinol isomerization reaction can also be evaluated with a recombinant human enzyme system. […] A homogenate of HEK293 cell clone expressing recombinant human RPE65 and LRAT were the source of the visual enzymes, and exogenous all-trans-retinol (about 20 μM) was used as the substrate. Recombinant human CRALBP (about 80 ug/mL) was added to enhance the formation of 11-cis-retinal. The 200 μL Bis-Tris Phosphate buffer (10 mM, pH 7.2) based reaction mixture also contains 0.5% BSA, and 1 mM NaPPi. In this assay, the reaction was carried out at 37° C. in duplicates for one hour and was terminated by addition of 300 μL methanol. The amount of reaction product, 11-cis-retinol, was measured by HPLC analysis following Heptane extraction of the reaction mixture. […] The ability of the numerous compounds disclosed herein to inhibit isomerization reaction is quantified and the respective IC50 value is determined. The tables below summarises the IC50 values of various compounds of the present invention determined by either of the above two methods. FIG. 1 is a representative figure of the IC50 determination of the compound of Example 2.", "values": [
      {"compound": "CNC(=O)CCC#Cc1cccc(CCCN)c1", "note": "[Example 172, 5-(3-(3-Aminopropyl)-phenyl)-N-methylpent-4-ynamide]", "IC50 (μM), Human in vitro Inhibition Data": "≦10 μM"},
      {"compound": "NCCCc1cccc(C#CCCC(N)=O)c1", "note": "[Example 173, 5-(3-(3-Aminopropyl)-phenyl)pent-4-ynamide]", "IC50 (μM), Human in vitro Inhibition Data": "≦10 μM"},
      {"compound": "CCC(O)(C#Cc1cccc(C(O)CCN)c1)CC", "note": "(stereo not shown) [Example 174, 1-(3-(3-amino-1-hydroxypropyl)phenyl)-3-ethylpent-1-yn-3-ol]", "IC50 (μM), Human in vitro Inhibition Data": "≦0.01 μM"},
      {"compound": "NCCC(O)c1cccc(C#CC2CCCCCC2)c1", "note": "(stereo not shown) [Example 176, 3-Amino-1-(3-(cycloheptylethynyl)phenyl)propan-1-ol]", "IC50 (μM), Human in vitro Inhibition Data": "≦0.01 μM"},
      {"compound": "CCCC(O)(C#Cc1cccc(CCCNC)c1)CCC", "note": "[Example 177, 4-((3-(3-(Methylamino)propyl)phenyl)ethynyl)heptan-4-ol]", "IC50 (μM), Human in vitro Inhibition Data": "≦0.01 μM"},
      {"compound": "NCCOc1cccc(C#CC2CCCCO2)c1", "note": "(stereo not shown) [Example 178, 2-(3-((Tetrahydro-2H-pyran-2-yl)ethynyl)phenoxy)ethanamine]", "IC50 (μM), Human in vitro Inhibition Data": "≦1 μM"},
      {"compound": "Cc1ccc(CCC#Cc2cccc(C(O)CCN)c2)cc1", "note": "(stereo not shown) [Example 179, 3-Amino-1-(3-(4-p-tolylbut-1-ynyl)phenyl)propan-1-ol]", "IC50 (μM), Human in vitro Inhibition Data": "≦0.01 μM"},
      {"compound": "Cc1ccccc1CCC#Cc1cccc(C(O)CCN)c1", "note": "(stereo not shown) [Example 180, 3-Amino-1-(3-(2-o-tolylbut-1-ynyl)phenyl)propan-1-ol]", "IC50 (μM), Human in vitro Inhibition Data": "≦0.01 μM"},
      {"compound": "Cc1cccc(CCC#Cc2cccc(C(O)CCN)c2)c1", "note": "(stereo not shown) [Example 181, 3-Amino-1-(3-(3-m-tolylbut-1-ynyl)phenyl)propan-1-ol]", "IC50 (μM), Human in vitro Inhibition Data": "≦0.01 μM"},
      {"compound": "NCCC(O)c1cccc(C#CC2(O)CCCC2)c1", "note": "(stereo not shown) [Example 182, 1-((3-(3-Amino-1-hydroxypropyl)phenyl)ethynyl)cyclopentanol]", "IC50 (μM), Human in vitro Inhibition Data": "≦0.01 μM"},
      {"compound": "NCCC(O)c1cccc(C#CCCC2CCCC2)c1", "note": "(stereo not shown) [Example 184, 3-amino-1-(3-(4-cyclopentylbut-1-ynyl)phenyl)propan-1-ol]", "IC50 (μM), Human in vitro Inhibition Data": "≦0.01 μM"},
      {"compound": "NCC[C@@H](O)c1cccc(C#CCOc2ccccc2)c1", "note": "[Example 185, (R)-3-Amino-1-(3-(3-phenoxyprop-1-ynyl)phenyl)propan-1-ol]", "IC50 (μM), Human in vitro Inhibition Data": "≦0.01 μM"},
      {"compound": "Cc1cccc(C)c1OCC#Cc1cccc([C@H](O)CCN)c1", "note": "[Example 186, (R)-3-Amino-1-(3-(3-(2,6-dimethylphenoxy)prop-1-ynyl)phenyl)propan-1-ol]", "IC50 (μM), Human in vitro Inhibition Data": "≦0.01 μM"},
      {"compound": "Cc1cccc(C)c1SCC#Cc1cccc([C@H](O)CCN)c1", "note": "[Example 187, (R)-3-Amino-1-(3-(3-(2,6-dimethylphenylthio)prop-1-ynyl)phenyl)propan-1-ol]", "IC50 (μM), Human in vitro Inhibition Data": "≦0.01 μM"},
      {"compound": "CCCC(O)(C#Cc1cccc(NCCN)c1)CCC", "note": "[Example 188, 4-((3-(2-Aminoethylamino)-phenyl)ethynyl)heptan-4-ol]", "IC50 (μM), Human in vitro Inhibition Data": "≦0.01 μM"},
      {"compound": "CCCC(O)(C#Cc1cccc(SCCN)c1)CCC", "note": "[Example 189, 4-((3-(2-Aminoethylthio)phenyl)ethynyl)heptan-4-ol]", "IC50 (μM), Human in vitro Inhibition Data": "≦0.01 μM"},
      {"compound": "CCCC(O)(C#Cc1cccc([S+]([O-])CCN)c1)CCC", "note": "(stereo not shown) [Example 190, 4-((3-(2-Aminoethylsulfinyl)Phenyl)Ethynyl)Heptan-4-ol]", "IC50 (μM), Human in vitro Inhibition Data": "≦0.01 μM"},
      {"compound": "CCCC(O)(C#Cc1cccc(S(=O)(=O)CCN)c1)CCC", "note": "[Example 191, 4-((3-(2-Aminoethylsulfonyl)Phenyl)Ethynyl)Heptan-4-ol]", "IC50 (μM), Human in vitro Inhibition Data": "≦0.01 μM"},
      {"compound": "CCCC(O)(C#Cc1cccc(CCCCN)c1)CCC", "note": "[Example 192, 4-((3-(4-Aminobutyl)Phenyl)Ethynyl)Heptan-4-ol]", "IC50 (μM), Human in vitro Inhibition Data": "≦0.01 μM"}
    ]}
  ]
}
